About 2,200 (0.71%) of roughly 310,000 compounds showed an effect of 50% or more. The effect is printed as a negative number. This is one part of the list.

The target of the assay is human ether-à-go-go-related gene (hERG) potassium channel (human, UniProt Q12809). The assay can be described thus: primary screen, population patch clamp on CHO cells stably expressing hERG.
Chain of human ether-à-go-go-related gene (hERG) potassium channel (Q12809 whole entry, looked up): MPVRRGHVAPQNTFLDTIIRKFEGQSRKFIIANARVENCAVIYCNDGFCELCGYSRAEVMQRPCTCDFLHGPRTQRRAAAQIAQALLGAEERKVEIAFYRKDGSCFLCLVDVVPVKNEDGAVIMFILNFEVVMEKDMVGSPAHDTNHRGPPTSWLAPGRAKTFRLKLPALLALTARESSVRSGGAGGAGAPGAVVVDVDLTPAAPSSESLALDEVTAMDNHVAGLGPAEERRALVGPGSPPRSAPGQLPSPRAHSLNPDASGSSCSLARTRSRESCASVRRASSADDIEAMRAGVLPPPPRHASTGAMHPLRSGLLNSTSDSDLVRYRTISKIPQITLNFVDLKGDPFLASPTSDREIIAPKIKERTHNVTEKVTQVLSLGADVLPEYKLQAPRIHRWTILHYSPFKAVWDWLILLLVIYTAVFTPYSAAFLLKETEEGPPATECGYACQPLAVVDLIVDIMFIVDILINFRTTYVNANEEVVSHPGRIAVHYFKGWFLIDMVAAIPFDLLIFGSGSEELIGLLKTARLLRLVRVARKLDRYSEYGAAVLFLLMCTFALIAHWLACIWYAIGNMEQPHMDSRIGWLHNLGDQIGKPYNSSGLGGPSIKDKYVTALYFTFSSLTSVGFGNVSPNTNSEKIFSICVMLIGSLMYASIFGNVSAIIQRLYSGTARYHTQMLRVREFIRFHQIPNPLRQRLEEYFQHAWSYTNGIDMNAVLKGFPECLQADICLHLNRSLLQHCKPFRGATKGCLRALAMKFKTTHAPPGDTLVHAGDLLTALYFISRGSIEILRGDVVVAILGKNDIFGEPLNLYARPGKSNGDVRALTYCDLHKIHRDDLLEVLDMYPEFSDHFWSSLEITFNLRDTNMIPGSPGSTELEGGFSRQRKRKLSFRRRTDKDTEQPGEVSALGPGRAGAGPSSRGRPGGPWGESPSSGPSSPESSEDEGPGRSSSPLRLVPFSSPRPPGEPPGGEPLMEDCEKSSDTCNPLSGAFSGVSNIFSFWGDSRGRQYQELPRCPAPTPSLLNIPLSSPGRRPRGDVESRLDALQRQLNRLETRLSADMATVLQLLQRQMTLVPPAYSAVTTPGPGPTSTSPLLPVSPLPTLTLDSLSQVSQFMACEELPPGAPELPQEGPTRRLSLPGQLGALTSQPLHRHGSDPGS
Regarding `CCCCC1=NN2CCS(=O)(=O)N=C2S1`, the “hERG current change (%, negative = inhibition) at 1uM” value is 7%.
On to `COCCn1c(SCC(=O)Nc2cc(OC)ccc2OC)nc2c(c1=O)SC(C)C2` (centres unmarked), for which the “hERG current change (%, negative = inhibition) at 1uM” value is 4.38%.
With `CC(C)CC(NC(=O)c1ccccc1)C(=O)N/N=C/c1ccco1` (centres unmarked) the figure was 11.5%; with `Cc1ccc(C(=O)N2CCN(c3ccccn3)CC2)cc1`, -6.06%; with `CCCC(c1nnnn1Cc1ccco1)N1CCN(c2ccccc2)CC1.Cl` (centres unmarked), 9.08%.
Take `CCOC(=O)c1c(C)n(C)c2ccc(OCC(O)CN3CCN(C)CC3)cc12.Cl` (centres unmarked): the “hERG current change (%, negative = inhibition) at 1uM” value is on record as 2.81%.
Take `Cc1ccn2cc(-c3cccc(S(=O)(=O)N4CCCCC4)c3)nc2c1`: the “hERG current change (%, negative = inhibition) at 1uM” value came out at 13.9%.
With `COc1ccc(C(=O)OCC(O)COC(=O)c2ccc(OC)cc2)cc1` the figure was 6.51%; with `CCOC(=O)c1nc2cc3n(c(C)c-2c1C)C(C)C(C)=C3C.Cl` (centres unmarked), -13.9%.
With `CCCn1c(=O)c2ccccc2n2c(SC(C)C(N)=O)nnc12` (centres unmarked) the figure was 13.8%; with `CC(C)N(C(C)C)S(=O)(=O)c1ccc(N2CCc3ccccc3C2)nc1`, 12.1%; with `CCSc1nnc(SCC(=O)NC2CCCCC2)s1`, 11.4%.
With `COc1ccc(C(C(=O)NCc2ccccc2)N(Cc2cccnc2)C(=O)c2snc(C(N)=O)c2N)cc1OC` (centres unmarked) the figure was 8.05%.
Consider `Cc1nnc(NC(=O)CSc2ccc(-c3ccco3)nn2)s1`, for which the “hERG current change (%, negative = inhibition) at 1uM” value is on record as 14.9%.
With `CCN(CC)C(=O)C(=O)N/N=C/c1ccc(Br)cc1` the figure was 3.35%; with `CCn1c(CC(=O)Nc2ccc(C)c(Cl)c2)nnc1SCC(=O)Nc1nc(C)cs1`, -0.588%; with `O=C1Nc2ccccc2C1=O`, 3.31%.
Consider `Cc1nc(CS(=O)c2ccc(Cl)cc2)cc(N2CCOCC2)n1` (centres unmarked), for which the “hERG current change (%, negative = inhibition) at 1uM” value came to 11.9%.
For `CN(C)c1ccc(C2C3C(=O)NC(=O)C3ON2c2ccc(Cl)cc2)cc1` (centres unmarked) the value was -33.2%; for `O=C(COC(=O)CSc1ccc2ccccc2c1)NCc1ccc2c(c1)OCO2`, 14.5%; for `COc1ccccc1C1CC(c2c(-c3ccccc3)c3cc(Cl)ccc3[nH]c2=O)=NN1S(C)(=O)=O` (centres unmarked), 9.89%.
With `N=C1S/C(=C\c2ccccc2F)C(=O)N1c1ccc(F)cc1` the figure was 6.95%; with `CN(C)C(=O)O/N=C(\N)COc1ccc(C(C)(C)C)cc1`, 8.49%; with `CCOc1cccc(-c2c(C(=O)N/N=C/c3ccncc3)nnn2-c2nonc2N)c1`, 12.6%.
For `N#Cc1ccccc1OCC(=O)OCC(=O)NC1CCCC1` the value was 9.47%.
`O=C(O)c1cccc(N2C(=O)c3cc([N+](=O)[O-])cc4cc([N+](=O)[O-])cc(c34)C2=O)c1`: the “hERG current change (%, negative = inhibition) at 1uM” value was 13.2%.
In the case of `CC(=O)N1CCN(C2=NC(=O)C(=C3CCCCC3)S2)CC1`, the “hERG current change (%, negative = inhibition) at 1uM” value is given as -2.21%.
Consider `COc1cc2c(cc1NC(=O)CCCN1C(=O)CCC1=O)oc1ccccc12`, for which the “hERG current change (%, negative = inhibition) at 1uM” value is given as 13.1%.
With `C=CCn1c(SCC(=O)N(C)C2CCS(=O)(=O)C2)nnc1-c1ccncc1` (centres unmarked) the figure was 6.19%; with `CCn1c(=O)c(C(=O)Nc2ccccc2S(N)(=O)=O)c(O)c2ccccc21`, 18.7%; with `O=C(Nc1nnc(S(=O)(=O)N2CCOCC2)s1)c1ccccc1F`, 21.1%.
With `O=C(Nc1cccc2c1CCCC2)c1cc([N+](=O)[O-])cc([N+](=O)[O-])c1` the figure was 10.3%; with `CN1c2ccsc2C(O)=C(C(=S)Nc2ccc(F)c(Cl)c2)S1(=O)=O`, 9.27%; with `Cc1ccc(NC(=S)N(Cc2cccs2)Cc2cc3cc(C)ccc3[nH]c2=O)cc1`, 10.4%.
For the compound `CCOc1cc(CN2CCCCC2)ccc1OC`, the “hERG current change (%, negative = inhibition) at 1uM” value is recorded as -4.33%.
With `NC(=O)CSc1nnc(-c2ccc(S(=O)(=O)N3CCCC3)cc2)o1` the figure was 8.73%; with `CCCCN(C(=O)CN1C(=O)C2CCCCC2C1=O)c1c(N)n(CCCC)c(=O)[nH]c1=O` (centres unmarked), 2.98%; with `CCN(CC)c1ccc(N=Cc2ccc(N(CC)CC)cc2O)cc1`, -5.47%.
For `CCN1CCN(S(=O)(=O)c2cnc(Cl)c(Br)c2)CC1`, the “hERG current change (%, negative = inhibition) at 1uM” value turned out to be 37.7%.
With `O=C(COc1cccc(C(F)(F)F)c1)NCC(c1ccco1)N1CCCCC1` (centres unmarked) the figure was -3.7%; with `CC(=O)NCCc1nc2ccccc2n1CCOc1cccc(C)c1`, 5.57%; with `Nc1c(-c2ccccc2)c(CSc2nc3ccccc3[nH]2)nn1-c1ccc(Cl)cc1`, 15.9%.
For `O=C(O)C1=C[C@H](c2ccc(Br)cc2)C[C@H](OCc2ccc(CO)cc2)O1` the value was 12%; for `CCOC(=O)[C@H]1[C@H]2COc3ccc(OC)cc3[C@@H]2N2C(=O)CN(CC3CCCO3)C(=O)[C@@]12C` (some centres unmarked), 19.7%.
As for `Cl.Oc1ccc(N2CCN(C(c3cccs3)c3nnnn3CCc3ccccc3)CC2)cc1` (centres unmarked), the “hERG current change (%, negative = inhibition) at 1uM” value turned out to be 7.53%.
With `FC(F)(F)c1cc(-c2ccccc2)nc(NCC2CCCO2)n1` (centres unmarked) the figure was 6.04%.
For `CN1C(=O)N(S(=O)(=O)c2ccc(F)c(F)c2F)C(=O)C1(C)C` the value was 11%; for `O=C(N/N=C(/CC(=O)c1cccs1)C(F)(F)F)c1ccc(O)cc1`, 12.1%; for `COc1ccc(CC2(C)OC(c3ccc([N+](=O)[O-])cc3)=NN2C(C)=O)cc1` (centres unmarked), -6.66%.
For `Cc1ncc(CO)c(/C=N/NC(=O)c2ccc(O)cc2)c1O` the value was -0.97%.
For the compound `O=C(c1cccs1)C1CN2CCC1CC2` (centres unmarked), the “hERG current change (%, negative = inhibition) at 1uM” value came to 2.16%.
As to `CCOC(=O)C1=C(O)C(=O)N(Cc2cccnc2)C1c1ccc(C)cc1` (centres unmarked), the “hERG current change (%, negative = inhibition) at 1uM” value turned out to be 13.7%.
With `O=C(/C=C/c1ccc(OC2CSC2)cc1)c1ccc(Cl)cc1` the figure was 1.19%; with `COc1ccc(-n2c(SCC(=O)c3ccc[nH]3)nnc2-c2ccccc2)cc1`, 10.6%; with `O=S(=O)(c1cnc[nH]1)N1CCN(c2ccc(Cl)cc2)CC1`, 13.7%.
On to `CN(C(=O)CN1C(=O)/C(=C/c2ccc(Cl)cc2)SC1=S)C1CCS(=O)(=O)C1` (centres unmarked), for which the “hERG current change (%, negative = inhibition) at 1uM” value is listed as 8.21%.
With `CCC(C(=O)Nc1ccc([N+](=O)[O-])cn1)c1ccccc1` (centres unmarked) the figure was -23.5%.
Turning to `Cc1ccc(NC(=O)Cn2cccc2C2=NC(c3ccccc3)CO2)cc1C` (centres unmarked), the “hERG current change (%, negative = inhibition) at 1uM” value came out at 11.9%.
For `O=[N+]([O-])c1cc(NS(=O)(=O)c2ccc(Cl)nc2)ccc1Cl` the value was -0.66%.
With `CCOC(=O)CN1NC2(CCCCCCC2)NC1=S` the figure was 12.1%.
For `CCCCCn1c(=O)c(C(=O)Nc2ccccc2)c(O)c2ccccc21` the value was 12.9%; for `CCCN1C(=O)C2(SC(NC(C)=O)=NN2C(C)=O)c2cc(C)ccc21` (centres unmarked), 16.8%; for `CS(=O)(=O)N1CCc2cc(S(=O)(=O)N3CCN(Cc4ccc5c(c4)OCO5)CC3)ccc21`, 12.9%.
Consider `Cc1cc(C)cc(OCC(O)CN2C(=O)NC(C)(C)C2=O)c1` (centres unmarked), for which the “hERG current change (%, negative = inhibition) at 1uM” value is 22%.
With `Clc1ccc(C2[C@H]3CN(CC4CCCCC4)[C@H](c4ccccc4)C34CC2(c2cccnc2)C4)cn1` (some centres unmarked) the figure was -3.34%.
With `CCc1noc(C)c1C(=O)N(C)CC(=O)Nc1ccccc1Br` the figure was 6.82%; with `COc1ccccc1C(=O)NCC1(c2ccccc2)CCCC1`, 14.6%.
`Cc1sc(N)nc1-c1ccccc1`: the “hERG current change (%, negative = inhibition) at 1uM” value is on record as 11.1%.
With `Nc1[nH]ncc1C(=O)Nc1cccc(C(F)(F)F)c1` the figure was 6.42%; with `Cc1ccccc1C(=O)Nc1ccc(S(=O)(=O)N2CCN(C)CC2)cc1`, 5.64%.
For `O=C(CN1C(=O)NC(c2ccc(F)cc2)C1=O)Nc1ccc2c(c1)OCCO2` (centres unmarked), the “hERG current change (%, negative = inhibition) at 1uM” value was determined as 12.3%.
With `COc1ccc(CCNC(=O)c2c(N)n(CCN3CCOCC3)c3nc4ccccc4nc23)cc1` the figure was 2.14%.
For `O=C1CN(C(=O)CSc2nnc3ccccn23)c2ccccc2N1` the value was -4.26%; for `Cc1ccc(CCC(=O)NCc2ccccc2)o1`, 4.44%; for `CC(C)c1ccc(C2NCc3ccccc3-n3cccc32)cc1.Cl` (centres unmarked), 14%.
With `Cc1ccc(-n2c(C)cc(C(=S)N3CCOCC3)c2C)cc1C` the figure was 2.89%; with `O=[N+]([O-])c1cc(/C=N/Nc2nc(N3CCCCC3)nc(N3CCCCC3)n2)ccc1O`, 10.1%; with `c1ccc2cc(CNCc3cccc4ccccc34)ccc2c1`, 9.78%.
For the compound `CSc1ccc(C2=CC(=O)C[C@H](c3ccc(Cl)cc3)C2)cc1`, the “hERG current change (%, negative = inhibition) at 1uM” value worked out at 13.7%.
For `CC1(C)C(=O)N(c2ccccc2)C1c1ccccc1O` (centres unmarked) the value was 8.94%; for `Cc1ccccc1CSCC(=O)NCc1ccco1`, 1.73%; for `COc1ccccc1C(=O)NNC(=O)c1cccc(O)c1`, 12.8%.
For the compound `COc1ccc(/C=C(\C#N)C(=O)Nc2cccc(C)n2)cc1`, the “hERG current change (%, negative = inhibition) at 1uM” value is 15.6%.
`CC(NC(=O)Nc1ccccc1)C(c1cccs1)N1CCN(C)CC1` (centres unmarked): the “hERG current change (%, negative = inhibition) at 1uM” value came out at 1.44%.
With `CCOc1c([N+](=O)[O-])cc2c(C)c(C(=O)N3CCN(C)CC3)oc2c1OCC.Cl` the figure was 3.61%; with `Cc1cccc(NC(=S)N/N=C/C(C)c2ccccc2)c1C` (centres unmarked), 11.6%; with `CC(C)N(CC#CC(O)(c1ccccc1)c1ccccc1)C(C)C`, -38.1%.
For `CC(C)n1c(CN2CCN(C(=O)c3ccco3)CC2)nc2c1c(=O)n(C)c(=O)n2C` the value was 4.41%; for `COc1ccccc1/C=N/NC(=O)c1csc(C)c1C`, 2.87%.
